Results taken from PubChem BioAssay AID651820 (National Center for Advancing Translational Sciences (NCATS), 2012).
Among all 340,000 compounds or so, about 12,000 (3.5%) were called active. This list was built around the results that the source calls inconclusive (neither active nor inactive); the mix of calls is not that of the screen. The call rests on the fitted dose curve; in most records, active means well fitted inhibition curve with a large enough effect; inconclusive means small, poorly fitted or top-dose-only effect, or another doubt; inactive means no such curve, though single readings can be large or run the other way. No potency is given beside an inconclusive call; the fits are too rough.

Test: qHTS Assay for Inhibitors of Hepatitis C Virus (HCV)
Settings: Huh7.5.1 HCVcc-Cre (HCVcc is cell-culture hepatitis C virus) infection, luciferase reporter, 44 h; activity change, negative = inhibition: at 41.8 µM (top of the series) unless noted
Outline: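 Infectious HCV cell culture screen: compound-treated cells (1,000/well, pre-plated 4 h) are infected with HCVcc-Cre at roughly 0.5 moi and grown 44 h. Infection is quantified by luciferase signal after 15 min substrate incubation at room temperature.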
On the % scale 0 is the no-effect control and ±100 the full control effect; potency means the concentration at half of the fitted maximal effect; tags describe the fitted curve by direction and shape.

Row | SMILES | activity change, negative = inhibition | Potency
1 | O=C(NC1CC1)C1=C[C@@H](C2CC2)C[C@@H](OCCCCO)O1 | inactive: 19.9% | –
2 | CCOc1ccc2[nH]c(=O)c(CN(Cc3ccco3)C(CC)c3nnnn3Cc3ccccc3)cc2c1 (stereo not given) | – | inconclusive [inhibitor, single point]
3 | COc1ccc(C(c2nnnn2C2CCCCC2)N2CCN(c3ccccc3F)CC2)cc1 (stereo not given) | – | inconclusive [inhibitor, single point]
4 | COc1ccc(NC(=O)c2cc(C)nc3ccccc23)cc1S(=O)(=O)Nc1ccccc1Cl | – | inconclusive [inhibitor, partial curve]
5 | Cc1ccc(NS(=O)(=O)c2ccc3c(c2)N(C)CCO3)cc1 | – | inconclusive [inhibitor, single point]
6 | COc1ccccc1NC(=S)NC1CCCCCC1 | – | inconclusive [inhibitor, single point]
7 | Cc1ccc(-c2nc3ccccc3c(=O)o2)cc1 | inactive: 2.62% | –
8 | N#Cc1c(N)c(C#N)c(-c2ccc3c(c2)OCO3)c2c1CCCC2 | inactive: -12.3% | –
9 | CCCNC(=O)C1CCN(S(=O)(=O)c2ccc(Br)cc2)CC1 | – | inconclusive [inhibitor, partial curve]
10 | CCOC(=O)c1ccc(NC(=O)CSc2nnc(-c3cccs3)n2CC)cc1 | – | inconclusive [inhibitor, partial curve, poor fit]
11 | CC(=O)c1c(NCc2ccccc2)nc(=O)n(-c2ccccc2)c1C | inactive: 3.81% | –
12 | O=C1CSc2ccc(C(=O)NCCc3ccc(Cl)cc3Cl)cc2N1 | – | inconclusive [inhibitor, single point]
13 | O=C(N/N=C/c1c(O)ccc2ccccc12)Nc1ccccc1 | – | inconclusive [inhibitor, single point]
14 | CCOC(=O)CNC(=O)N1CCC(CCOc2ccccc2)(C(=O)OCC)CC1 | inactive: -2.92% | –
15 | Cc1nc(SCc2ccccc2)c2oc3ccccc3c2n1 | – | inconclusive [inhibitor, partial curve]
16 | O=C(CN1C(=O)NC2(CCCc3ccccc32)C1=O)NC1CCCCC1 (stereo not given) | inactive: 8% | –
17 | Cc1ccc(NC(=O)COc2ccc(Br)cc2CO)cc1 | – | inconclusive [inhibitor, single point]
18 | Cn1cccc1/C=C1\CCC/C(=C\c2cccn2C)C1=O | – | active: 12.6 µM
19 | CCCCn1c(N)c(N(CCOC)C(=O)c2ccc(-c3cccc(C(F)(F)F)c3)o2)c(=O)[nH]c1=O | inactive: -3.45% | –
20 | Cc1ccc2nc(SCC(=O)Nc3cc(C(C)(C)C)nn3-c3ccccc3)[nH]c2c1 | – | inconclusive [inhibitor, partial curve]
21 | Cc1cc(C)c(C)c(S(=O)(=O)Nc2ccccc2N2CCOCC2)c1C | – | inconclusive [inhibitor, single point]
22 | CCn1c(SCC(=O)Nc2cccc(OC)c2)nc2ccccc2c1=O | inconclusive: -32.9% [inhibitor] | –
23 | O=C(COc1ccc(Cl)cc1)Nc1cc(NC(=O)COc2ccc(Cl)cc2)cc(C(=O)O)c1 | inactive: 11.7% | –
24 | O=C(COc1ccc(Cl)cc1)NCc1nnc(SCC(=O)N2CCCc3ccccc32)o1 | – | inconclusive [inhibitor, full curve, poor fit]
25 | COc1ccc(C(=O)Nc2ccc(C3CC3(Cl)Cl)cc2)cc1 (stereo not given) | – | inconclusive [inhibitor, partial curve]

Row | SMILES | activity change, negative = inhibition | Potency
26 | CCOC(=O)N1CCN(C(=O)CSCC(=O)Nc2nc(-c3ccc(C)cc3)cs2)CC1 | – | active: 11.2 µM
27 | Clc1nc2c(-c3ccccc3)nnn2c2ccccc12 | – | inconclusive [inhibitor, single point]
28 | COc1cccc(-c2cc(C(=O)Nc3c(C)nn(Cc4ccccc4)c3C)no2)c1 | – | active: 10 µM
29 | COc1ccc(-c2cccc(NC(=O)c3ccc4c(c3)OCO4)c2)nn1 | – | active: 15.8 µM
30 | CC(=O)Nc1cccc(NC(=O)c2ccc3c(c2)CCN3S(=O)(=O)c2ccccc2)c1 | – | inconclusive [inhibitor, single point]
31 | COc1cc(/C=N/NC(=O)CCC(=O)NC2CCCCC2)ccc1C | inactive: 0.327% | –
32 | COc1ccc(CCNS(=O)(=O)c2ccc(Br)cc2)cc1 | inactive: 12.4% | –
33 | Cn1c(/C=N/NC(=O)c2ccccc2Br)nc2ccccc21 | inactive: -7.25% | –
34 | Cc1ccc(CSc2ccc3nnc(-c4ccccn4)n3n2)cc1 | inactive: 10.4% | –
35 | C/C(=N\NC(=O)C(C)Sc1ccccc1)C(C)(C)C (stereo not given) | inactive: 12.5% | –
36 | O=C(O)C[C@H]1c2ccc(C(F)(F)F)cc2S(=O)(=O)N1Cc1ccccc1 | – | inconclusive [inhibitor, single point]
37 | N=C1c2ccccc2CN1c1cccc([N+](=O)[O-])c1 | inactive: 7.08% | –
38 | CN(C)c1ccc(NC(=O)CSc2nc3ccccc3c(=O)n2C2CCCCC2)cc1 | – | inconclusive [inhibitor, partial curve]
39 | CCN1CCCC1CNC(=O)c1cc2c(=O)n(C)c3ccccc3c2n1C (stereo not given) | – | inconclusive [inhibitor, partial curve]
40 | COC(=O)c1sc(NC(=O)c2ccc([N+](=O)[O-])o2)c(C#N)c1C | – | active: 11.2 µM
41 | CCCCCC(=O)Nc1ccc(N2CCN(CC)CC2)c(Cl)c1 | – | active: 22.4 µM
42 | COc1cc(S(=O)(=O)NCc2ccccn2)ccc1Cl | inactive: 4.25% | –
43 | COCCN(C(=O)c1snc(C(N)=O)c1N)C(C(=O)NC1CCCC1)c1cc(OC)c(OC)c(OC)c1 (stereo not given) | inactive: 0.939% | –
44 | C/C(CCc1oc2c(Br)cc(Br)cc2c1-c1ccc(C)o1)=N\O | – | inconclusive [inhibitor, partial curve]
45 | CN1CCN(C(=O)C2CCC(=O)N(CCc3cccc(F)c3)C2)CC1 (stereo not given) | inactive: 13.2% | –
46 | Oc1c(Cl)cc(Cl)c2c1NCCC2 | – | inconclusive [inhibitor, partial curve]
47 | CC(C(=O)N(C)Cc1cccc(F)c1)N1CCN(S(=O)(=O)c2ccc3c(c2)OCCCO3)CC1 (stereo not given) | inactive: -16.4% | –
48 | CC(/C=C/c1ccccc1)=N\NC(=O)C1CC1(C)c1ccccc1 (stereo not given) | – | inconclusive [inhibitor, single point]
49 | COC(=O)C1=C(C)NC(C)=C([N+](=O)[O-])C1c1ccccc1C(F)(F)F (stereo not given) | – | inconclusive [inhibitor, single point]
50 | COc1cccc(C(=O)Nc2ccc(C(=O)c3ccncc3)cc2)c1 | – | inconclusive [inhibitor, partial curve, poor fit]

Row | SMILES | activity change, negative = inhibition | Potency
51 | C/C=C/C(=O)OCC(=O)Nc1ccc(C)c(S(=O)(=O)N(C)C)c1 | inactive: -13.3% | –
52 | COc1cc(/C=C/c2ccc(/C=C/c3cc(OC)c(OC)c(OC)c3)cc2)cc(OC)c1OC | – | inconclusive [inhibitor, single point]
53 | COCCNC(=O)c1cc2c(s1)-c1ccc(Cl)cc1SC2 | – | inconclusive [inhibitor, single point]
54 | O=C(CSc1n[nH]c(-c2ccccn2)n1)Nc1ccccc1 | – | inconclusive [inhibitor, single point]
55 | COc1cccc2sc(NNC(=O)COc3ccccc3)nc12 | – | inconclusive [inhibitor, full curve, poor fit]
56 | O=C(NCC(c1ccco1)N1CCc2ccccc21)C(=O)Nc1ccc(F)cc1F (stereo not given) | – | inconclusive [inhibitor, full curve]
57 | Cc1ccc(/C=C/C(=O)OCC(=O)NCc2cccs2)o1 | inactive: -10.8% | –
58 | CC(=O)N1CCN(CC(=O)Nc2ccccc2Sc2ccccc2)CC1 | inactive: 4.77% | –
59 | O=C1CC2(CCCC2)C(=O)N1CN1CCN(S(=O)(=O)c2ccc(Cl)c(Cl)c2)CC1 | – | inconclusive [inhibitor, single point]
60 | COc1ccc(CCNC(=O)[C@H](C)N2C(=O)N3CCc4c([nH]c5ccccc45)[C@@]3(C)C2=O)cc1OC | – | active: 1 µM
61 | CCCC/C(O)=C1\C(=O)CC(C)(C)CC1=Nc1ccc(OC)cc1 | – | inconclusive [inhibitor, partial curve]
62 | O=C(c1ccco1)N1CCN(c2nc(C(F)(F)F)nc3c2nnn3Cc2ccccc2)CC1 | – | active: 3.98 µM
63 | NC1=NC(=O)C(=Cc2ccccc2)S1 | inactive: 2.08% | –
64 | O=C(Nc1nc(-c2ccccn2)cs1)c1ccc(Br)s1 | – | active: 2.24 µM
65 | COc1cccc(C(CNC(=O)C2CCN(C(=O)Nc3ccccc3)CC2)N(C)C)c1 (stereo not given) | inactive: -2.04% | –
66 | Nc1nonc1-n1nnc(C(=O)N/N=C/c2ccc(Br)cc2)c1CN1CCOCC1 | inactive: -10.3% | –
67 | CCC(=O)Nc1sc2c(c1C(=O)OC)CCN(Cc1ccccc1)C2 | – | inconclusive [inhibitor, single point]
68 | Cc1nc(SCC(=O)Nc2nc3ccccc3s2)n[nH]1 | – | inconclusive [inhibitor, single point]
69 | CCOc1cc(/C=C2/C(=N)N3C(=NC2=O)SN=C3S(=O)(=O)C(C)C)ccc1OC(=O)c1ccco1 | inactive: 1.38% | –
70 | Cc1cc(C)c2nc(N3C(=O)C(O)=C(C(=O)c4ccco4)C3c3ccc(O)cc3)sc2c1 (stereo not given) | inactive: 32.8% | –
71 | Cc1cc(C(=O)OCC(=O)N(CC(C)C)c2c(N)n(Cc3ccccc3)c(=O)[nH]c2=O)c2ccccc2n1 | – | inconclusive [inhibitor, single point]
72 | Cc1cc(C(C)(C)C)ccc1OCCCCN1CCCC1 | – | active: 22.4 µM
73 | CCn1c(SCc2ccc(C(=O)Nc3nccs3)cc2)nnc1-c1ccc(N)cc1 | – | inconclusive [inhibitor, single point]
74 | COC(=O)c1ccc(CSc2ccc3nnc(-c4cccc(F)c4)n3n2)o1 | inactive: 1.01% | –
75 | COc1ccccc1Nc1ncc(C(=O)N2CCN(Cc3ccc(OC)c(OC)c3OC)CC2)c2ccccc12 | – | active: 12.6 µM
